# Experimental data as given in PubChem BioAssay AID1508623 (National Center for Advancing Translational Sciences (NCATS), 2021).
# Out of some 48,000 compounds screened, about 450 (0.94%) were called active. Another 19% or so got no clear call; they are omitted. The call rests on the fitted dose curve; in most records, active means well fitted inhibition curve with a large enough effect; inconclusive means small, poorly fitted or top-dose-only effect; inactive means no such curve, though single readings can be large or run the other way. The list shows a part of the results.
# Test: Primary qHTS for Identification of Small Molecule Inhibitors of Huntingtin Promoter Activity; further: nearly all actives have a fitted effect of over 50% in size
# Conditions: HEK293 HTT promoter firefly luciferase reporter (activity 0% = vehicle and -100% = no light), 24 h; series mostly up to 57.5 µM; activity change, negative = inhibition: at the top concentration
# Outline: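 HEK293 Fluc reporter, 2,500 cells/well, 24 h pre-culture; cpds up to 57.5 uM final, 24 h 37 degrees C; Dual-Glo, 10 min RT; normalized vehicle = 0%, zero RLU = -100%.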
# Potency means the concentration at half of the fitted maximal effect.
Compound,"activity change, negative = inhibition",Potency
CCS(=O)(=O)N1CCc2cc(C(=O)NC(C)c3ccccc3)ccc21 (stereo not drawn),inactive: -15.3%,–
O=c1c2sc3ccccc3c2n(Cc2cccc(C(F)(F)F)c2)c(=O)n1-c1ccccc1,inactive: -23.2%,–
CCCCCn1c(=N)c(S(=O)(=O)c2ccc(C)cc2)cc2c(=O)n3cc(C)ccc3nc21,inactive: 5.39%,–
CC(C)(CC(=O)NCc1ccc(Cl)cc1Cl)CC1=NS(=O)(=O)c2ccccc2N1,–,active: 20 µM
COC(=O)c1ccc(NS(=O)(=O)c2ccc3c(c2)n(C)c(=O)c(=O)n3C)cc1,inactive: -4.52%,–
Cn1c2c(c(=O)n(C)c1=O)C(c1ccccc1C(F)(F)F)CC(=O)N2 (stereo not drawn),inactive: -13.9%,–
CCOC(=O)c1ccc(CN(Cc2ccc(F)cc2)S(=O)(=O)c2ccc(F)c(C(=O)Nc3ccccc3C(F)(F)F)c2)cc1,inactive: -23.4%,–
CCNC(=O)CC1C(=O)N(c2ccc(F)cc2)C(=O)N1Cc1ccc(OC)c(OC)c1 (stereo not drawn),inactive: -7.55%,–
CCc1ccccc1N(CC)C(=O)C(=O)Nc1ccc2nc3n(c(=O)c2c1)CCCCC3,inactive: -10.2%,–
O=S(=O)(c1ccc2ccccc2c1)n1nc(-c2ccco2)nc1NCc1ccc(F)cc1,inactive: -3.58%,–
Cc1cc(C)cc(C(=O)N(Cc2nc(-c3ccc(Cl)cc3)no2)C(C)C)c1,inactive: -13.9%,–
COCCNC(=O)C(=O)NCC(c1ccc2c(c1)OCO2)N1CCOCC1 (stereo not drawn),inactive: -7.55%,–
COC(=O)c1ccc(OCC(O)Cn2cnc3cc(C)c(C)cc32)cc1 (stereo not drawn),inactive: -11.7%,–
Cc1ccc(C(=O)Nc2ccc(-c3nc4ccccc4s3)c(O)c2)c(C)c1,inactive: 54.5%,–
COCCCNC(=O)c1c(NC(=O)c2nc(S(C)(=O)=O)ncc2Cl)sc2c1CCCC2,inactive: -2.74%,–
CCCCN(C)CCNC(=O)c1cc(=O)[nH]c2ccc(S(=O)(=O)N3CCCCCC3)cc12,inactive: -12%,–
Cc1cc(NC(=O)c2ccc(-c3ccc(Cl)cc3)o2)cc(-c2nc3ncccc3o2)c1O,inactive: -9.1%,–
Cc1ccc(CNC(=O)c2cnc(N(C)C)nc2)cc1,inactive: -4.3%,–
Cc1ccc(NC(=O)c2ncn(-c3ccccc3)n2)cc1Cl,inactive: 52.2%,–
COc1ccc(NC(=O)c2oc3ccccc3c2NC(=O)c2cc(=O)c3c(C)cc(C)cc3o2)cc1,inactive: 21.3%,–
Cc1nc(-n2nc(C)c(Cc3ccccc3Cl)c2C)sc1C(=O)N1CCCCC1C (stereo not drawn),inactive: -5.65%,–
COc1ccc(-c2nc(C(=O)Nc3cccc(C(C)=O)c3)nn2-c2ccc(Cl)cc2)cc1,inactive: -4.2%,–
Cc1ccc(NC(=O)CS(=O)(=O)c2nc(-c3ccc(C)cc3)cn2-c2ccc(C)cc2)cc1,inactive: -13.6%,–
NC(=O)[C@@H]1CSSCCC(=O)N[C@@H](CCCCN=C(N)N)C(=O)NCC(=O)N[C@@H](CC(=O)O)C(=O)N[C@@H](Cc2c[nH]c3ccccc23)C(=O)N2CCC[C@H]2C(=O)N1,inactive: 1.01%,–

Compound,"activity change, negative = inhibition",Potency
CCOc1ccccc1NC(=O)CC1C(=O)NCCN1C(=O)c1ccc(F)cc1 (stereo not drawn),inactive: -6.08%,–
COc1ccc(OC)c(Nc2nc3ccccc3n3c(C)nnc23)c1,inactive: 0.572%,–
O=C(Nc1cc(-c2nc3cc(Cl)ccc3o2)ccc1Cl)c1cccs1,inactive: -6.71%,–
C#CC(C)(CC)NC(=O)Cn1nnc(-c2ccc(OCc3ccccc3F)cc2)n1 (stereo not drawn),inactive: -3.75%,–
COCCCNC(=O)c1cc2n(n1)CCCN(Cc1ccc(C)cc1)C2=O,inactive: -0.791%,–
CC(=O)SC[C@@H](C)C(=O)N1CCC[C@H]1C(=O)N[C@@H](Cc1ccccc1)C(=O)O,inactive: -1.49%,–
CC[C@H](C)[C@H](N)C(=O)O,inactive: 10.6%,–
COc1ccc(OC)c(NC(=O)c2cc3c(s2)-c2ccccc2SC3)c1,inactive: -6.34%,–
COc1ccccc1-c1c(C)nn2c(N3CCN(c4cccc(Cl)c4)CC3)cc(C)nc12,inactive: -13%,–
Cc1c(NS(=O)(=O)c2cccc(C(=O)O)c2)c(=O)n(-c2ccccc2)n1C,inactive: 2.9%,–
O=C(CSc1nnc(CNC(=O)c2c(F)cccc2Cl)o1)Nc1ccccc1F,inactive: -5.23%,–
CCC(=O)N1c2ccccc2CC1C(=O)NCc1ccccc1C (stereo not drawn),inactive: 0%,–
CS(=O)(=O)c1ncc(N(Cc2ccco2)Cc2ccco2)c(C(=O)Nc2ccccc2Br)n1,inactive: -16%,–
CNc1nc(Oc2ccc(=O)n(C)n2)nc(N2CCOCC2)n1,inactive: 2.63%,–
Cn1c(SCC(=O)N2CCCc3ccccc32)ncc(C(=O)Nc2ccc(Cl)cc2)c1=O,inactive: -10.1%,–
CCc1nc2nc(C)cc(Nc3ccc(OC)cc3)n2n1,inactive: -23%,–
CN(C1CCCCC1)S(=O)(=O)c1ccc2c(c1)c(=O)c(C(=O)NCCc1ccc(Cl)cc1)cn2C,inactive: -6.19%,–
CSCCC(NS(=O)(=O)c1ccc2c(c1)oc(=O)n2C)C(=O)NCCc1ccc(C)cc1 (stereo not drawn),inactive: -10.3%,–
CCS(=O)(=O)N1CCC(C(=O)NCCC(C)C)CC1,inactive: -15.6%,–
COc1cccc(OCCCCn2c(-c3ccc(Cl)cc3)nc3ccccc3c2=O)c1,inactive: -7.64%,–
O=S(=O)(NCCSc1nnnn1-c1ccccc1)c1ccc(F)cc1,inactive: -18.1%,–
Cc1ccc(-c2onc(C)c2C)cc1S(=O)(=O)NCc1ccco1,inactive: -18.8%,–
O=c1[nH]cnc2nc[nH]c12,inactive: 20.2%,–
CC(=O)Nc1ccc(S(=O)(=O)NC2(C(F)(F)F)NC(=O)N(c3ccc(C)cc3)C2=O)cc1 (stereo not drawn),inactive: -1.13%,–
